Laboratory results: PubChem BioAssay AID504706 (National Center for Advancing Translational Sciences (NCATS), 2011)
Hit rate of the full screen: of about 320,000 compounds, about 200 (0.062%) were called active. The inconclusive results got no clear call from the source; some entries with a clear call stand among them for comparison. The call rests on the fitted dose curve; in most records, active means well fitted activation curve with a large enough effect; inconclusive means small, poorly fitted or top-dose-only effect; inactive means no such curve, though single readings can be large or run the other way. No potency is given beside an inconclusive call; the fits are too rough.
Potency means the concentration at half of the fitted maximal effect; tags describe the fitted curve by direction and shape.

Test: qHTS assay for re-activators of p53 using a Luc reporter; further: nearly all actives have a fitted effect of over 45% in size
Settings: H1299 p53-A138V BP100-luciferase reporter, luminescence, 24 h; series mostly up to 92.2 µM
Method in brief: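 p53-null H1299 cells stably carrying temperature-sensitive p53-A138V and a BP100-luciferase reporter were pinned with compounds (4-point, 1:5 series) and held 24 hrs at 37 deg C. Luminescence was read 10 min after detection reagent.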
In the case of O=C(N/N=C/c1c(O)n(Cc2ccccc2)c(=O)[nH]c1=O)c1ccccc1, the Potency is reported as inconclusive [activator, partial curve, poor fit]. With O=C(Nc1ccc(Br)cc1C(=O)O)c1ccc2c(c1)C(=O)N(Cc1ccccc1)C2=O the Potency was inconclusive [activator, partial curve, poor fit]. With COC(=O)C1=C(c2cccc(C#N)c2)C[C@@H]2CC[C@H]1N2C(=O)N1CCOCC1 the Potency was inconclusive [activator, single point]. For Cc1ccc(C(c2nnnn2Cc2ccccc2)N2CC=C(c3ccc(F)cc3)CC2)cc1 (stereo unspecified), the Potency was “inactive”. With N#CC(C#N)=NNc1ccc(S(N)(=O)=O)cc1 the Potency was “inactive”. For Cc1ccc(/C=C/C(=O)C2C(=O)c3ccccc3C2=O)cc1, the Potency was inconclusive [activator, partial curve, poor fit]. With CC(C)(C)C(O)C(Oc1ccc(Cl)cc1)n1cncn1 (stereo unspecified) the Potency was “inactive”. With CCC(=NC1CCN(Cc2ccccc2)CC1)c1c(O)[nH]c(=O)[nH]c1=O the Potency was inconclusive [activator, partial curve, poor fit]. For c1ccc(CCNCc2ccccc2)cc1, the Potency was “inactive”. With C=C1C(O)(c2ccccc2)C2CC[N+]1(C)CC2 (stereo unspecified) the Potency was “inactive”. In the case of O=C(CN1CCCC1)Nc1ccc(NC(=O)Nc2ccccc2)cc1, the Potency is reported as inconclusive [activator, partial curve, poor fit]. For O=C(c1cc(-c2ccccc2)on1)N1CCC2(CC1)OCCO2, the Potency was “inactive”. In the case of Cc1ccc(N2C(=O)NC(=O)/C(=C\c3ccc([N+](=O)[O-])o3)C2=O)cc1, the Potency is reported as “inactive”. For CN(C(=O)Oc1ccc(C(C)(C)C)cc1)c1ccccc1, the Potency was “inactive”. For C[C@H]1CC[C@@]2(C)[C@@H](CC[C@@H]3[C@@H]2CC[C@]2(C)[C@@H](O)CC[C@@H]32)C1, the Potency was “inactive”. With CCOC(=O)C1(c2ccccc2)CCN(CCC(=O)Nc2cccc(Br)c2)CC1 the Potency was “inactive”. In the case of Clc1ccc(NC2=NCCCS2)cc1Cl, the Potency is reported as inconclusive [activator, single point]. In the case of COC(=O)C1=C(c2ccc(F)cc2F)C[C@@H]2CC[C@H]1N2C(=O)NC1CC1, the Potency is reported as inconclusive [activator, partial curve, poor fit]. For COc1ccc(O)c2c(=O)c3c(OC)cc4c(c3oc12)C1C=COC1O4 (stereo unspecified), the Potency was “inactive”. With Nc1ccccc1N=Cc1c(O)n(CCC2=CCCCC2)c(=O)[nH]c1=O the Potency was inconclusive [activator, partial curve, poor fit]. For Cc1cccc(NC(=O)CN2CCN(C(=O)COc3cccc(Br)c3)CC2)c1C, the Potency was inconclusive [activator, partial curve, poor fit]. With CCOC(=O)C1CCCN(Cc2ccc(-c3ccccc3)cc2)C1 (stereo unspecified) the Potency was inconclusive [activator, single point]. With CCC(=O)c1ccc(OC(=O)N(C)c2ccccc2)cc1 the Potency was inconclusive [activator, partial curve, poor fit]. For COc1ccc(NC(=O)Nc2cccc3cccnc23)cc1, the Potency was inconclusive [activator, partial curve, poor fit]. For O=C(O)c1ccc(-n2c(O)c(/C=C3\C=Nc4ccccc43)c(=O)[nH]c2=O)cc1, the Potency was “inactive”. In the case of C[C@@H]1CC[C@@]2(NC1)O[C@H]1C[C@H]3[C@@H]4CC=C5C[C@@H](O)CC[C@]5(C)[C@H]4CC[C@]3(C)[C@H]1[C@@H]2C, the Potency is reported as inconclusive [activator, single point]. In the case of CC(Cc1ccccc1)NC(=O)/C=C/c1ccc(Cl)cc1 (stereo unspecified), the Potency is reported as inconclusive [activator, full curve, poor fit]. In the case of Cc1cccc(N2C(=O)/C(=C/c3ccc(N4CCN(C)CC4)o3)C(=O)NC2=S)c1C, the Potency is reported as inconclusive [activator, single point]. For COC(=O)C1=C(c2cc3ccccc3o2)C[C@@H]2CC[C@H]1N2C, the Potency was inconclusive [activator, single point]. In the case of COC(=O)C1=C(c2ccc(F)cc2OCc2ccccc2)C[C@@H]2CC[C@H]1N2C(=O)NCc1ccc(C(F)(F)F)cc1, the Potency is reported as “inactive”. In the case of CN1C(=O)/C(=C/c2ccc(Cl)s2)C(=O)NC1=S, the Potency is reported as “inactive”. For CC(C)COc1ccc(Cc2c(O)[nH]c(=S)[nH]c2=O)cc1, the Potency was inconclusive [activator, single point]. For COC1=CC=C2[C@H]3Cc4ccc(OC)c5c4[C@@]2(CCN3C)[C@H]1O5, the Potency was “inactive”. In the case of COc1c(C)cc(C(=O)C2CCCN(Cc3cccc(C)n3)C2)cc1C (stereo unspecified), the Potency is reported as “inactive”. With CC(c1nccs1)N(C)C(=O)c1cn(Cc2cccc3ccccc23)nn1 (stereo unspecified) the Potency was inconclusive [activator, partial curve, poor fit]. With Cc1cc(OCC(=O)NCc2ccc(S(N)(=O)=O)cc2)c2c3c(c(=O)oc2c1)CCC3 the Potency was “inactive”. In the case of Cc1nc2ccccc2c(=O)n1-c1ccc([N+](=O)[O-])cc1, the Potency is reported as inconclusive [activator, partial curve, poor fit]. With O=C(Oc1ccc2ccccc2c1Cl)N1CCCC1 the Potency was inconclusive [activator, partial curve, poor fit]. In the case of CN1C(=O)C(=Cc2ccccc2OCc2ccc(Cl)cc2)C(=O)N(C)C1=O, the Potency is reported as inconclusive [activator, partial curve, poor fit]. With CN1C(=O)CN=C(c2ccc(Cl)cc2)c2cc(Cl)ccc21 the Potency was “inactive”. In the case of CCn1c(O)c(N=Nc2cccc(S(=O)(=O)N3CCOCC3)c2)c(=O)n(CC)c1=S, the Potency is reported as “inactive”. With COc1ccc(C(=O)CC2C(=O)N(C)C(=O)N(C)C2=O)cc1 the Potency was inconclusive [activator, single point]. For CCC(C)C1N=C(c2ccccc2)c2cc(Cl)ccc2N(CC(=O)NCc2ccco2)C1=O (stereo unspecified), the Potency was “inactive”. With Cc1cc(N2C(=O)C3CCCN3C2c2sccc2C)no1 (stereo unspecified) the Potency was inconclusive [activator, partial curve, poor fit]. For CCOc1ccc(Br)c(C2(O)CC(C)N(C)CC2C)c1 (stereo unspecified), the Potency was inconclusive [activator, single point]. With Cc1cc(OCc2ccc([N+](=O)[O-])cc2)c2c3c(c(=O)oc2c1)CCCC3 the Potency was “inactive”. In the case of CC(=O)c1c(C)n(Cc2ccccc2)c2ccc(O)cc12, the Potency is reported as “inactive”. In the case of CCCNc1oc(-c2cccc3ccccc23)nc1C#N, the Potency is reported as inconclusive [activator, partial curve, poor fit]. For CN(C)C(=O)Oc1ccc(-c2cn3cc(C(F)(F)F)ccc3n2)cc1, the Potency was inconclusive [activator, full curve, poor fit]. In the case of COc1ccccc1N=Cc1c(O)n(C)c(=O)n(C)c1=O, the Potency is reported as inconclusive [activator, single point]. With CN1C(=O)C(=Cc2ccc(-c3cccc(Cl)c3)o2)C(=O)N(C)C1=O the Potency was “inactive”. In the case of COc1ccc(C(=O)CN2CCCCC2)cc1, the Potency is reported as “inactive”. In the case of CCOc1ccc(NC(=O)c2ccc(NC(=O)COC(=O)Cc3ccccc3)cc2)cc1, the Potency is reported as inconclusive [activator, full curve, poor fit]. For NNCc1cccc(O)c1, the Potency was inconclusive [activator, full curve, poor fit]. In the case of CCOc1ccccc1-n1c(O)c(C=Nc2ccc(N(CC)CC)cc2)c(=O)[nH]c1=O, the Potency is reported as inconclusive [activator, partial curve, poor fit]. For C=CC[C@@H](CC/C=C/C=C/CC/C=C\[C@@H]1CSC([C@@H]2C[C@@H]2C)=N1)OC, the Potency was inconclusive [activator, single point]. For Cc1ccc(N)c(N)c1, the Potency was inconclusive [activator, full curve, poor fit]. For COCCOC(=O)c1c(C)n(C)c2ccc(OC(=O)N(C)C)cc12, the Potency was “inactive”. With Cc1cccc(-n2c(O)c(/C=C3/C(c4ccccc4)=Nc4ccccc43)c(=O)[nH]c2=O)c1 the Potency was inconclusive [activator, partial curve, poor fit]. For N=C1SCC(=O)N1Cc1ccccc1, the Potency was “inactive”. With CC(N)C(=O)c1ccco1 (stereo unspecified) the Potency was inconclusive [activator, full curve, poor fit]. In the case of COc1cc2c(cc1O)C[C@H]1NCCc3cc4c(c-2c31)OCO4, the Potency is reported as “inactive”. With COc1nc2ccccc2c(=O)n1-c1ccc(C)cc1 the Potency was “inactive”. In the case of CCCCN1CC(O)=C(c2nc3ccccc3s2)C1=N, the Potency is reported as inconclusive [activator, partial curve, poor fit]. With O=c1[nH]c(=O)n(-c2ccccc2)c(O)c1/C=C1/C(c2ccccc2)=Nc2ccccc21 the Potency was inconclusive [activator, partial curve, poor fit]. In the case of CC1CCCCC1NC1CCN(C)CC1 (stereo unspecified), the Potency is reported as inconclusive [activator, partial curve, poor fit]. In the case of Oc1ccc(Cl)c(Cl)c1Cl, the Potency is reported as “inactive”. With Cc1nc2ccccc2c(=O)n1-c1ccc(Br)cc1[N+](=O)[O-] the Potency was inconclusive [activator, single point]. In the case of CCOC(=O)[C@]1(C#N)[C@@H]2C=CC(C(C)=O)=CN2[C@@H](C(N)=O)[C@@H]1c1ccsc1, the Potency is reported as “inactive”. For O=C(COc1ccc(S(=O)(=O)N2CCCCC2)cc1)N1CCN(Cc2ccccc2)CC1, the Potency was “inactive”. With O=C1/C(=C/c2ccc([N+](=O)[O-])cc2)N2CCC1CC2 the Potency was inconclusive [activator, single point].
